# Reference: the supplement of paper PMC3334620
# In all, about 33,000 sequences were measured (“E-score (-0.5 to 0.5)”: median about -0.032, highest 2% from about 0.36 on). The list shows a part of the results.
# Molecular target: T1, Sko1 (UniProt Q02100)
# T1 sequence: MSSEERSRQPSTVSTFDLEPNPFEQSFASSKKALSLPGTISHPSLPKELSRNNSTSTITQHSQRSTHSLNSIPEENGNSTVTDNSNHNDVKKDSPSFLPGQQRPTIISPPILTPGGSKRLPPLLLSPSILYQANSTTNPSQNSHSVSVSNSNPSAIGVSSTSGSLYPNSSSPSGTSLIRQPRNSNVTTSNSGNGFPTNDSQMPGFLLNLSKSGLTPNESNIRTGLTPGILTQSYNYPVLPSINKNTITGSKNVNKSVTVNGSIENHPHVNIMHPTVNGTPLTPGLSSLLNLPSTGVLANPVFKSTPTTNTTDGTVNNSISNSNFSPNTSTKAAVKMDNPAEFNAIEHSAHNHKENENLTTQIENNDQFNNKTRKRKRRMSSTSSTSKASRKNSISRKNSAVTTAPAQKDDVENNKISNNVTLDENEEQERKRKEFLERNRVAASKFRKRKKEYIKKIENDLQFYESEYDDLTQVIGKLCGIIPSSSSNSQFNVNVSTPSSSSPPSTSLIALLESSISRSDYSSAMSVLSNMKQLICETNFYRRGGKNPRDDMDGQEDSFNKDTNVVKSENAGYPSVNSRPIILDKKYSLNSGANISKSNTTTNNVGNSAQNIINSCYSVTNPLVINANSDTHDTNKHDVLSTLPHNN
# Assay: PBM E-score (8-mer binding enrichment) (E-score (-0.5 to 0.5)); higher = stronger / more preferred TF binding; most listed sequences are background and not binding sites
# Conditions: protein concentration: 200 nM; construct: GST-full length
# Protocol: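 Universal 'all 10-mer' protein binding microarrays (Agilent AMADID 015681) probed with GST-tagged S. cerevisiae TFs (full-length or DBD) made by in vitro transcription/translation (PURExpress), about 100-200 nM. Bound TF was detected with fluorescent anti-GST. Each ungapped 8-mer (which stands for itself and its reverse complement) is scored by the PBM enrichment score (E-score), a modified Wilcoxon-Mann-Whitney statistic from -0.5 to +0.5, computed with the Universal PBM Analysis Suite. Scale: above 0.35 generally sequence-specific binding.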
row,Sequence,PBM E-score
1,AAGCACCT,-0.161
2,ATATTGGC,0.0765
3,CACCTGCG,-0.158
4,CGTCCCGC,-0.0792
5,AACGTTCG,0.141
6,ACTCGTGA,0.142
7,AAGCTTTG,-0.16
8,AAGATAGC,-0.0196
9,ATGTGAGC,-0.00412
10,TCAGGTCA,-0.00471
11,ACCGTCCC,-0.249
12,CTTCTAGA,0.00173
13,GAAAGAGA,0.0191
14,AACTTCCG,-0.0705
15,ATCCGCTG,-0.251
16,ATGCAGTA,0.0493
17,ACTTTAAT,0.141
18,ACGGAGCG,-0.0203
19,AACAGAAT,0.0854
20,GTATTCAA,0.182
21,CCCTGTCA,-0.188
22,AATGCAAT,-0.0187
23,GGTTGTTA,0.119
24,CGAACCAG,-0.102
25,TCTACCAA,0.0286

row,Sequence,PBM E-score
1,AGGGCAGA,-0.221
2,ACCCTGGA,-0.269
3,ATCGAGCG,-0.0477
4,ACAGACCT,-0.0535
5,GATCTACA,0.152
6,AAAATTCA,0.232
7,CAAAGGTC,-0.248
8,AGTACCCG,-0.154
9,ACGGTTGA,-0.0163
10,AATCGGAT,0.0262
11,CCAGTCGA,-0.113
12,AGTCTTCG,-0.0104
13,GGGAACGA,-0.0709
14,CAGTGGGA,-0.244
15,CATCAAAC,0.0279
16,GGGTTGGA,-0.175
17,CTTACGGA,0.0115
18,CGGAGAAG,-0.339
19,CCCACAAA,0.0826
20,AAATAGTG,0.119
21,AGTAAGAT,0.0634
22,CTCCTGGC,-0.186
23,AACTCTCA,0.0877
24,GACTGGAA,-0.0795
25,AGGCGCCC,-0.343

row,Sequence,PBM E-score
1,CGACAGTA,-0.0872
2,ATATTGCC,-0.0187
3,AACACACC,0.055
4,AGTACATC,0.142
5,ACAAAGTA,0.234
6,ACGCCCAA,-0.0309
7,CGGCTGGA,-0.286
8,AGTAATAC,0.0785
9,AGTGAATA,0.145
10,GGCGCAAC,0.0247
11,AAAGTAAC,0.0224
12,ACCTCTAG,-0.11
13,AAGGAAGG,-0.117
14,GCTGTCAA,-0.0369
15,TCAGAACA,0.143
16,CACTAGTC,-0.115
17,GTGCACTA,0.0334
18,ACCAGTGC,-0.295
19,AAGTGAGT,-0.114
20,CGGTAAGA,-0.0828
21,CCCACGGG,-0.323
22,AACTGTGC,-0.0382
23,CAAGCTCC,-0.175
24,CATTGCGC,0.168
25,AATTCCCT,0.0113

row,Sequence,PBM E-score
1,GGCACCAC,-0.0296
2,TAAGTATA,0.181
3,GCGAGTAA,-0.0414
4,ATAGACCA,-0.119
5,TCCCCAGA,-0.0684
6,ATCACCGA,0.127
7,AATATATG,0.153
8,ACACGGGC,-0.32
9,AGTACTCC,-0.3
10,CGTCAGCA,0.283
11,GATCTAAC,0.142
12,AATTTTCT,0.15
13,AACAGTCT,-0.0828
14,ATTTGAAC,-0.033
15,ATAAATCC,-0.0598
16,AACAAAGT,-0.0558
17,CCCGATTC,-0.0716
18,ACACTGAC,0.115
19,CGATACAC,-0.00487
20,CTTCGTCA,0.412
21,CCCGCCAC,0.0435
22,AAAGGGCG,-0.262
23,TACGCCAA,0.183
24,CGCCGAGA,-0.265
25,CATCAGCA,0.0784

row,Sequence,PBM E-score
1,CGTGGCTA,0.114
2,ACCGTTCG,0.00583
3,AATCAATA,0.134
4,CATTGGGA,-0.0786
5,GATCCATC,-0.0717
6,ACGAAGAC,0.00875
7,CGCTCTGA,0.0109
8,CCCCGGTC,-0.419
9,AACCAATA,0.195
10,AAGTGTTG,0.204
11,CCCCTCCG,-0.168
12,AACGAACC,0.0276
13,TACAGTCA,0.192
14,CCAGTTGC,-0.17
15,TGCCCCCA,-0.204
16,TGAGAGCA,-0.0137
17,ACAGCGAA,-0.0485
18,ATCATTAA,0.239
19,AAATCTGT,0.0176
20,CAGTGTTC,-0.0083
21,ATCTCGTC,0.157
22,CCACTGCG,0.0633
23,AGCCCAAG,-0.135
24,AAAATAGT,0.0671
25,ACAAGCGA,0.109

row,Sequence,PBM E-score
1,GAGCGGCC,-0.195
2,CCTGATAC,0.0648
3,CAAGAGGC,-0.252
4,GATCTCTA,-0.051
5,CCTTCGAC,-0.123
6,CACGCTGC,-0.102
7,ACTTAACG,0.127
8,AGGTCCAC,-0.327
9,AAAGCGGT,-0.0789
10,ATGTTCGC,-0.0744
11,CACCTATG,-0.062
12,ACCTGTCA,-0.176
13,CATGTTCC,-0.105
14,GCGTGCTA,0.0352
15,CTGCTCTA,-0.058
16,ATAGATGG,-0.264
17,CGGCACGA,-0.0667
18,ACACCTAG,-0.225
19,CAATTATA,0.164
20,CGCCTTTA,0.137
21,CGGTAGTA,-0.0889
22,GCTTGTGA,-0.0445
23,CCAGTCTA,-0.255
24,ACGGGTGC,-0.207
25,GCTGCCTA,-0.13

row,Sequence,PBM E-score
1,AAATCTAC,0.178
2,CGCCAACA,-0.0268
3,CTTCTACA,0.00657
4,GCAGGGAA,-0.228
5,CTTGTAAA,0.107
6,AAAACCGT,0.0625
7,AGCTTCCT,0.0027
8,AATCGGAA,0.0262
9,GGGGAGGA,-0.00888
10,ATGGTTGG,0.00874
11,AGTAATGG,0.122
12,ATTTCGTG,0.224
13,AGGACCCG,-0.266
14,GAACCTTA,-0.00846
15,ATAGCCGA,0.0688
16,TCGTCCCA,-0.0134
17,AACGCAGT,0.0823
18,CTAACAGC,-0.165
19,CAGCCCTA,-0.0666
20,AATATATA,0.189
21,ATTTGTAA,0.155
22,GGGTTCAC,-0.0986
